Experimental findings from paper PMC6643034 are described below.

By UniProt entry, the sequences of proteins in these tests, tags left out. Residues count along the entry.
UniProt Q92583, residues 24-94: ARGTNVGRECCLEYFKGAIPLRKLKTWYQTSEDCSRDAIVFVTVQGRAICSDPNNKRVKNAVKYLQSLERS
UniProt P19875, residues 35-107: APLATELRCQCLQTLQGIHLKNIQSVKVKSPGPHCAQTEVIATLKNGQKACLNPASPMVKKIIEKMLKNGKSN
UniProt P80075, residues 24-99: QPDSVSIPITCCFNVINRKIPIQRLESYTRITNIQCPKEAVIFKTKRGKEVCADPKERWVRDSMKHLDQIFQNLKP
UniProt P51671, residues 24-97: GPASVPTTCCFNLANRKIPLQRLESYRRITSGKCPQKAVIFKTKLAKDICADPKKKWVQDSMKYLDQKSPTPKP
UniProt P13500, residues 24-99: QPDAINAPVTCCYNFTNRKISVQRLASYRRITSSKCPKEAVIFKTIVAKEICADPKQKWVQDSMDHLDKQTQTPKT
UniProt P19876, residues 35-107: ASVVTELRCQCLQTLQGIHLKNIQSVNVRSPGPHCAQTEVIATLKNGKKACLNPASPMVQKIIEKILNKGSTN
UniProt P09341, residues 35-107: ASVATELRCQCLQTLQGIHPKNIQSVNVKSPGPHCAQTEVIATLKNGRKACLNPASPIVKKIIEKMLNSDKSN
UniProt P02778, residues 22-98: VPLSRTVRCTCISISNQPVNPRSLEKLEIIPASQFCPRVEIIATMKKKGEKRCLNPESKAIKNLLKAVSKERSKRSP

Holding throughout (test): BLI; cross-binding screen on OctetRed; evasin held on a nickel-coated biosensor through its C-terminal His tag; each human chemokine at 300 nM; both purified
A general note: In BLI a coated tip is dipped into the sample, and binding shifts an interference pattern.

Assay [1] concerns the target T1, EVA3_RHISA (Rhipicephalus sanguineus) (UniProt P0C8E8).
T1 sequence: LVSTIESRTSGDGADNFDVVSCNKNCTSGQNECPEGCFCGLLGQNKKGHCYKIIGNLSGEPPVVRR

Assay [2] concerns the target P1078_IXORI (Ixodes ricinus).
Assay [3] has as its target P1080_IXORI (Ixodes ricinus).
In assay [4] the target is P1086_IXORI (Ixodes ricinus).
Assay [5] concerns the target P1090_IXORI (Ixodes ricinus).
Assay [6] concerns the target P1100_IXORI (Ixodes ricinus).
The target in assay [7] is P1124_IXORI (Ixodes ricinus).
Assay [8] deals with T2, P1126_AMBCA (Amblyomma cajennense).
T2 sequence: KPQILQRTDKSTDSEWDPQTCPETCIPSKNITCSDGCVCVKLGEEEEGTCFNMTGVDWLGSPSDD

The target of assay [9] is T3, P1142_AMBCA (Amblyomma cajennense).
T3 sequence: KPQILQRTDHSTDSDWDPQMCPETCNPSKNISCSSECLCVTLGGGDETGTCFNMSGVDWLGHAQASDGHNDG

Assay [10] has as its target T4, P1172_IXORI (Ixodes ricinus) (UniProt V5I2G9).
T4 sequence: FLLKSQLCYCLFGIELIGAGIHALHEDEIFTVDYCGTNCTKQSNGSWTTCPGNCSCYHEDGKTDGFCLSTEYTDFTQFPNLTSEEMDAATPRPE

For assay [11], the target named is P942_IXORI (Ixodes ricinus).

Results are given in words; binding and its absence hold for the method and conditions named. Some entries that bind do so weakly or less than the wild type. For some assays here: Sequences can lack the tags named with a protein.

Regarding “CCL17 (from UniProt Q92583 24-94) (ligand)”, the binding result in assay [1], in assay [2], in assay [3], in assay [4], in assay [5] and in assay [6] was “no binding (tested: 300 nM)” each time. Also, the binding entry in assay [7], in assay [8], in assay [9], in assay [10] and in [11] was “no binding (tested: 300 nM)” in each case.

As for “CXCL2 (from UniProt P19875 35-107) (ligand)”, in [10], the binding entry is reported as “binds”.

For the substance “CCL8 (from UniProt P80075 24-99) (ligand)”, the binding entry in [1], in [2], in assay [3], in assay [4], in assay [5] and in [6] was “no binding (tested: 300 nM)” throughout. Further, the binding result in assay [7], in assay [8], in [9], in assay [10] and in [11] was “no binding (tested: 300 nM)” throughout.

In the case of “CCL11 (from UniProt P51671 24-97) (ligand)”, the binding entry in [1], in [2], in assay [3], in [4], in [5] and in assay [6] was “no binding (tested: 300 nM)” throughout. Further, the binding result in assay [7], in assay [8], in [9], in assay [10] and in [11] was “no binding (tested: 300 nM)” each time.

For the substance “CCL2 (from UniProt P13500 24-99) (ligand)”, the binding result in assay [1], in [2], in [3], in assay [4], in assay [5] and in assay [6] was “no binding (tested: 300 nM)” throughout. Besides, the binding result in assay [7], in assay [8], in assay [9], in assay [10] and in assay [11] was “no binding (tested: 300 nM)” in each case.

Turning to “CXCL3 (from UniProt P19876 35-107) (ligand)”, the binding result in assay [10] was “no binding (tested: 300 nM)”.

For the substance “CXCL1 (from UniProt P09341 35-107) (ligand)”, the binding result in [10] is given as “binds”.

Consider “CXCL10 (from UniProt P02778 22-98) (ligand)”, for which the binding entry in [1] is given as “no binding (tested: 300 nM)”; in assay [5], “binds”; in assay [10], “no binding (tested: 300 nM)”.
